Molecules are shown by their SMILES. Among all 150,000 compounds or so, about 540 (0.36%) showed an effect of 50% or more. This is one part of the list.

This assay concerns Plasmodium falciparum. Briefly: Primary screen in NF54 nanoGlo assay, in single point, at 2uM, 72h; a lower Z score goes with more inhibition. In kind it is functional, Erythrocyte. The following applies: timepoint 72 hour.
As to `C[C@]1(Cc2cccc(F)c2)CCCN1C(=O)c1cc(C(N)=O)c[nH]1`, the “% Inhibition” value is -1% and the Z score was found to be 0.25.

Consider `Cc1ccc2c(c1)C(=O)N(CCC(=O)N1C3CCC1CC(=O)C3)C2=O`, for which the “% Inhibition” value was -6% and the Z score worked out at 0.93.

Consider `COCc1nccc(NC[C@H]2CCN(c3ccccc3)C2)n1`, for which the “% Inhibition” value is -5% and the Z score was 0.72.

Consider `Cn1nc(C2CCC2)n(CC(F)(F)F)c1=O`, for which the “% Inhibition” value is on record as -16% and the Z score is given as 2.36.

Consider `Cn1cc(CN(CC2CC2)C2CCC2)cn1`, for which the “% Inhibition” value is recorded as -8% and the Z score is recorded as 0.71.

With `CCCOc1ccccc1OC(=O)c1ccc(Cl)c(N2CCCC2=O)c1`, the “% Inhibition” value is recorded as 10% and the Z score is -1.28.

`c1ccc([C@H](CCn2cncn2)Nc2ncncn2)cc1`: the “% Inhibition” value is reported as -4% and the Z score is recorded as 0.7.

With `CCOCCO[C@@H](C)C(=O)N(C)C1CCN(Cc2ccncc2)CC1`, the “% Inhibition” value is reported as -7% and the Z score turned out to be 1.04.

In the case of `C[C@@]1(C2CC2)COCCN1C(=O)Cn1cnc(-c2ccccc2)n1`, the “% Inhibition” value amounted to 5% and the Z score was -1.07.

On to `CC[C@@H](C#N)NS(=O)(=O)c1sc2ccccc2c1Cl`, for which the “% Inhibition” value is on record as 1% and the Z score is listed as -0.13.

Consider `Cc1cc(C(=O)Nc2ccc3[nH]c(-c4ccco4)nc3c2)cnn1`, for which the “% Inhibition” value is recorded as -8% and the Z score amounted to 1.01.

For the molecule `CCn1nncc1CNC(=O)[C@@H](CN)C1CCCCCC1`, the “% Inhibition” value is on record as -1% and the Z score is 0.25.

`CCCCNC(=O)c1cc(NC(=O)CC2CCCC2)cc2nc([C@@H]3CCCO3)n(C)c12`: the “% Inhibition” value is reported as -1% and the Z score is 0.25.

With `C[C@@H](NC(=O)NC[C@H]1C[C@@H]1c1ccccc1)c1cncc(F)c1`, the “% Inhibition” value came to 5% and the Z score was -1.02.

As for `CCCc1noc(CCC(=O)NC[C@H](C)N2CCc3ccccc32)n1`, the “% Inhibition” value is -17% and the Z score amounted to 2.18.

With `COc1cccc(C2=NS(=O)(=O)N(C)C(C(=O)N3CCOCC3)=C2)c1`, the “% Inhibition” value is -3% and the Z score amounted to 0.48.

Turning to `CN(C(=O)Nc1scnc1C1CC1)[C@H]1CCCC[C@H]1C(F)(F)F`, the “% Inhibition” value was determined as 2% and the Z score was -0.36.

In the case of `COC(=O)[C@H](N)c1cccc(C(F)(F)F)c1`, the “% Inhibition” value is reported as 0% and the Z score was 0.01.

`COC(=O)CNC(=O)c1nccnc1N`: the “% Inhibition” value was found to be 7% and the Z score is given as -0.99.

Regarding `CCn1ccc2c(CN(C)C[C@H]3CCOC3)cccc21`, the “% Inhibition” value is recorded as -18% and the Z score was 1.66.

Turning to `O=C1C[C@H](Nc2ccc3c(c2)CCC3)C(=O)N1CCc1ccccc1`, the “% Inhibition” value is -6% and the Z score was 0.93.

As to `CN1CCC[C@H](CCC(=O)N2CCNC(=O)C23CCCCC3)C1`, the “% Inhibition” value was -5% and the Z score amounted to 0.99.

As for `COc1cccc(-c2cc(C(F)(F)F)nc(-n3nc(-c4cccc(C)c4)cc3-c3cccc(C)c3)n2)c1`, the “% Inhibition” value was -10% and the Z score came to 1.81.

In the case of `CCCCOCCN(C(=O)COC[C@H]1CCCO1)c1cccc(Br)c1`, the “% Inhibition” value was -2% and the Z score was determined as 0.24.

For the molecule `O=C(c1ccccc1)c1ccc2n1CC[C@H]2C(=O)N1CCN(c2ncccn2)CC1`, the “% Inhibition” value was 29% and the Z score was -3.31.

Take `CC1(C)CC(=O)CC(C)(C)N1[C@@H](O)C(Cl)(Cl)Cl`: the “% Inhibition” value is on record as -11% and the Z score was 1.54.

As to `CCc1cc(C(=O)N2C[C@@H](CN3C[C@@H](C)O[C@@H](C)C3)[C@@H](CO)C2)ccn1`, the “% Inhibition” value worked out at 24% and the Z score is on record as -2.39.

Consider `Cc1nc2cccnc2n1C[C@H]1CCCN(S(=O)(=O)c2cc(F)cc(F)c2)C1`, for which the “% Inhibition” value is recorded as -3% and the Z score was 0.43.

Take `O=S(=O)(Nc1ccc2[nH]nnc2c1)c1cc(F)c(F)c(F)c1`: the “% Inhibition” value is -2% and the Z score was found to be 0.29.

In the case of `C[C@@H](C(=O)NCc1nc(C2CCC(F)(F)CC2)no1)n1cccn1`, the “% Inhibition” value was -3% and the Z score is 0.55.

With `Cc1nc(CNC(=O)N2CCN(CC(C)(C)O)C[C@@H]2C)sc1C`, the “% Inhibition” value is listed as -3% and the Z score came out at 0.38.

Regarding `CCCN(CCC)Cc1ccc(CNS(=O)(=O)c2ccc3c(c2)C(C)(C)C(=O)N3C)o1`, the “% Inhibition” value is on record as -13% and the Z score is 1.68.

Turning to `COCCCN1CC[C@H](CNC(=O)c2[nH]c3ccc(C)cc3c2C)C1`, the “% Inhibition” value is -9% and the Z score stood at 1.05.

Consider `O=C(C1CCN([C@H]2CCc3c(F)ccc(F)c32)CC1)N1CCCCCC1`, for which the “% Inhibition” value was -10% and the Z score came out at 1.08.

In the case of `O=C(Nc1cc2ccccc2cc1NC(=O)c1cccc(Cl)c1)c1cccc(Cl)c1`, the “% Inhibition” value is -17% and the Z score worked out at 2.97.

On to `CO[C@H]1CCCC[C@@H]1NCc1cnc(N(C)C)n1C`, for which the “% Inhibition” value came to 9% and the Z score is on record as -1.52.

`O=C(COc1ccccc1)Nc1ccc(N2CCN(c3c(F)c(F)c(F)c(F)c3F)CC2)c(Cl)c1`: the “% Inhibition” value is recorded as 32% and the Z score was -3.67.

For `Cc1cccc(N2CCN(C(=O)c3cn4c(n3)CCCC4)CC2)c1`, the “% Inhibition” value is 1% and the Z score is on record as -0.14.

As for `Cc1cc(CC(=O)N2CCC(Cn3cncn3)CC2)no1`, the “% Inhibition” value was -6% and the Z score stood at 1.08.

In the case of `Cc1cc(=O)n(CC(=O)N(C)Cc2ccc(-n3cccn3)cc2)nc1C`, the “% Inhibition” value is reported as -13% and the Z score is 2.41.

For `Cc1ccc(NC(=O)N2CC[C@H](S(=O)(=O)c3ccc(Cl)cc3)C2)cc1C`, the “% Inhibition” value was 0% and the Z score is -0.01.

The % Inhibition is the drop in the measured response relative to a control, in per cent.

These data come from ChEMBL document CHEMBL4888484, “Replenishing the malaria drug discovery pipeline: Screening and hit evaluation of the MMV Hit Generation Library 1 (HGL1) against asexual blood stage Plasmodium falciparum ,using a nano luciferase reporter read-out” (2022).
